Molecules are shown by their SMILES. The campaign covered roughly 310,000 compounds. About 2,200 (0.71%) showed an effect of 50% or more. Effects have a minus sign here. The list shows a part of the results.

This assay deals with human ether-à-go-go-related gene (hERG) potassium channel (human, UniProt Q12809). In words: primary screen, population patch clamp on CHO cells stably expressing hERG.
human ether-à-go-go-related gene (hERG) potassium channel, sequence (Q12809 whole entry, looked up): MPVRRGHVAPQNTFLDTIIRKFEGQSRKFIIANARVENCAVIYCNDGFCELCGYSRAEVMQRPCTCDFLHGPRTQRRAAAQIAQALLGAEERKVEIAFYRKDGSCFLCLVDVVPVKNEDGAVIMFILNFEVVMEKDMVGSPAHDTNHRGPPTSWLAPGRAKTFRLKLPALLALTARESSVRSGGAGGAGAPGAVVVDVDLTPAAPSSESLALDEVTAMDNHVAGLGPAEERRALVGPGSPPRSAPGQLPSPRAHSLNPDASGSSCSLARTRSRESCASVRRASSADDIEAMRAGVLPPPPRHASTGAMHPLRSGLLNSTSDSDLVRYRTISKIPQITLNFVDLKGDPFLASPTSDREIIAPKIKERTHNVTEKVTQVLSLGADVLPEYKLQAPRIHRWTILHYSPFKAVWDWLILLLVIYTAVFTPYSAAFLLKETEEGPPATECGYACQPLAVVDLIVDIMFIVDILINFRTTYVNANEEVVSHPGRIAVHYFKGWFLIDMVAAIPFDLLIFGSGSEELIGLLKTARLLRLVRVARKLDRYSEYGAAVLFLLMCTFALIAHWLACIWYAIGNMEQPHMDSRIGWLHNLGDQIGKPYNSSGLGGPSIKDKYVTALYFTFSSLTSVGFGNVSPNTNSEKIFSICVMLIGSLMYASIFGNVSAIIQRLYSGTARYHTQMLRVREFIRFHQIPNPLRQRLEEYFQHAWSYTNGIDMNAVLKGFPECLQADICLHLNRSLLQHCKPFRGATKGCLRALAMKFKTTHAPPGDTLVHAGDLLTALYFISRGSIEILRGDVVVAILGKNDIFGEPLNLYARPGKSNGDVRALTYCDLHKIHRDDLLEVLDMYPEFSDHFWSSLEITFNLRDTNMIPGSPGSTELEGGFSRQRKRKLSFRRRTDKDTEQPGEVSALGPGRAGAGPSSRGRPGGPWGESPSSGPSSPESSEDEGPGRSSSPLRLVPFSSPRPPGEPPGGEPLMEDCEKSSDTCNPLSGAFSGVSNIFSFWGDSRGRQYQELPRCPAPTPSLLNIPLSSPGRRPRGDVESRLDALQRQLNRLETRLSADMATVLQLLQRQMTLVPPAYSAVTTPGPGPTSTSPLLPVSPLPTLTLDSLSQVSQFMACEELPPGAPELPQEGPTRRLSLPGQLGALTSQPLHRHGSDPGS
Turning to `CCOCCCNS(=O)(=O)c1ccc(OC)c(Cl)c1Cl`, the “hERG current change (%, negative = inhibition) at 1uM” value worked out at 7.12%. With `O=C(Cc1ccc(Cl)cc1)Nc1ccc2oc(-c3ccncc3)nc2c1` the figure was 9.34%. On to `O=C(Nc1cc(S(=O)(=O)N2CCOCC2)ccc1Cl)c1cc2ccccc2o1`, for which the “hERG current change (%, negative = inhibition) at 1uM” value was -3.17%. With `CN(CC(=O)Nc1ccccc1N1CCCC1)S(=O)(=O)c1ccc(F)cc1` the figure was 20.6%; with `COc1ccccc1CNC(=O)CCCNS(=O)(=O)c1cccc2nsnc12`, 6.81%; with `COc1ccc(S(=O)(=O)N2CCN(C)CC2)cc1C(=O)N1CCCCC1`, 5.11%. With `CCOC(=O)N1CCC(NC(=O)c2cc(-c3ccc(F)cc3)[nH]c2C)CC1` the figure was 11.6%.

For `O=C(Nc1cccc2ncccc12)c1cc2ccccc2o1`, the “hERG current change (%, negative = inhibition) at 1uM” value was 2.99%. As for `COc1ccc(N(C=O)C(=S)SC)cc1`, the figure is 13.1%. As for `CCOc1ccc(C(=O)C(CN2CCOCC2)c2ccccc2)cc1.Cl` (stereo not drawn), the figure is 8.5%; as for `Cc1ccc(NC(=O)COC(=O)c2cccc3c2C(=O)c2ccccc2C3=O)c(C)c1`, 7.07%. Take `CCCNC(=O)C(=O)N/N=C/c1ccc(OCc2ccccc2)cc1`: the “hERG current change (%, negative = inhibition) at 1uM” value came to 20.6%. Consider `CCO/N=C(/C)c1c(O)cc(-c2ccccc2)n(-c2ccccc2)c1=O`, for which the “hERG current change (%, negative = inhibition) at 1uM” value was determined as 12.1%. With `CCOC(=O)C1=C(C)N(c2ccc(OCC)cc2)C(=O)/C1=C\c1ccco1` the figure was 6.73%; with `CCCN1C(=O)c2cc(C(=O)Nc3ccccc3OC)ccc2C1Nc1ccccc1OC` (stereo not drawn), 3.4%. As for `O=C(C1=C[C@H](C2CC2)C[C@H](OCCCCO)O1)N1CCN(Cc2ccc3c(c2)OCO3)CC1`, the figure is -1.08%. For the compound `O=c1c(S(=O)(=O)c2ccc(Cl)cc2)cn(Cc2ccccc2)c2ccc(F)cc12`, the “hERG current change (%, negative = inhibition) at 1uM” value is 6.48%. As for `CC(C)(O)CC[C@@H](O)[C@](C)(O)[C@H]1CC[C@@]2(O)C3=CC(=O)[C@@H]4C[C@@H](O)[C@@H](O)C[C@]4(C)C3CC[C@]12C` (stereo partly drawn), the figure is -10.8%; as for `Cn1c(C2=C(O)CN(Cc3ccccc3)C2=N)nc2ccccc21`, -7.36%. Take `COc1ccc(CC(=O)NCc2n[nH]c(=S)n2-c2cccc(Cl)c2)cc1`: the “hERG current change (%, negative = inhibition) at 1uM” value is recorded as 4.25%. As for `CCc1nc(N2CCN(C(=O)c3ccco3)CC2)c2oc3ccccc3c2n1.Cl`, the figure is -13%; as for `O=C(Nc1ccc2c(c1)OCCO2)C(c1ccc(F)cc1)N1CCCCC1` (stereo not drawn), 12.3%; as for `Cc1ccc(C)c(S(=O)(=O)N2CCN(C(=O)c3ccc(C)s3)CC2)c1`, 14.1%. With `Cn1cc(Cl)c(C(=O)N/N=C/c2ccc(OS(=O)(=O)c3ccccc3)cc2)n1` the figure was -10.2%; with `O=C(NCc1ccc2c(c1)OCO2)c1cc(-c2ccncc2)nc2ccccc12`, -7.22%.

For `NC(=O)Cn1nc([N+](=O)[O-])nc1Oc1ccc(Br)cc1`, the “hERG current change (%, negative = inhibition) at 1uM” value came out at 3.59%. As for `COc1ccc(C(=O)OCC(=O)Nc2ccc(N3CCOCC3)cc2)cc1`, the figure is 7.45%. As for `Cc1nc2c(C(=O)N3CCCC3)cnn2c(C)c1Cc1c(F)cccc1Cl`, the figure is -11.4%. Consider `CC(/C=C/c1ccccc1)=N/NC(=O)Cn1nnc(N)n1`, for which the “hERG current change (%, negative = inhibition) at 1uM” value is given as 16.5%.

As to `Cc1cccc(CSc2nc3c(cc2C#N)CCC3)c1`, the “hERG current change (%, negative = inhibition) at 1uM” value is 15.2%.

On to `CC(=O)Nc1ccccc1C(=O)C(=O)Nc1ccc(Cl)cc1`, for which the “hERG current change (%, negative = inhibition) at 1uM” value worked out at 7.72%. For `N#C/C(=N\Nc1ccccc1[N+](=O)[O-])C(=N)N1CCCCC1`, the “hERG current change (%, negative = inhibition) at 1uM” value was determined as 5.9%.

Take `O=C(NCC(O)c1ccc([N+](=O)[O-])cc1)Nc1ccccc1` (stereo not drawn): the “hERG current change (%, negative = inhibition) at 1uM” value is reported as 7.3%. As for `Cc1n[nH]c(=S)n1/N=C/c1ccccc1`, the figure is 10.1%. As for `Cc1ccc(C(=O)N2CCCCCC2)cc1S(=O)(=O)N1CCOCC1`, the figure is 9.73%; as for `O=C(OCc1ccc(COC(=O)c2cccnc2Cl)cc1)c1cccnc1Cl`, 24%; as for `Cc1ccccc1-n1c(C)nnc1SCC(=O)NCC1CCCO1` (stereo not drawn), 5.63%. On to `CCCNC(=O)C(Cc1ccc(C(F)(F)F)cc1)NC(=O)c1ccc2ccccc2n1` (stereo not drawn), for which the “hERG current change (%, negative = inhibition) at 1uM” value was 12.1%. As for `COc1ccc(CCNC(=O)CSc2nnc3ccc(-c4cccnc4)nn23)cc1OC`, the figure is 8.74%; as for `O=C(NCc1ccco1)C1CC(c2ccccc2C(F)(F)F)=NO1` (stereo not drawn), 18.4%; as for `Cc1ccc(NC(=O)CSc2nccc(=O)[nH]2)c(S(=O)(=O)N2CCOCC2)c1`, 4.66%.

`COc1cccc(NC(=O)C2C3CCC4C(CCC32)C4(Cl)Cl)c1` (stereo not drawn): the “hERG current change (%, negative = inhibition) at 1uM” value was 8.03%. As for `Cc1ccc(NC(=O)COC(=O)c2cccc(OC(F)F)c2)cc1S(=O)(=O)N1CCCCC1`, the figure is -2.62%; as for `S=C(Nc1ccc(Cc2ccncc2)cc1)Nc1cccc(Cl)c1`, 5.91%; as for `O=C(COC(=O)c1ccccc1-c1ccccc1[N+](=O)[O-])c1ccccc1`, 8.36%. As for `CCCCc1cc2c(c(NC(C)=O)n1)c(=O)oc1ccccc12`, the figure is 15.8%. As for `O=C(C1CCN(S(=O)(=O)c2cccc3cccnc23)CC1)N1CCN(Cc2ccccc2)CC1`, the figure is -1.55%. Consider `CC1=NN(c2ccccc2)C(=O)/C1=C\c1cc(C)n(-c2cccnc2)c1C`, for which the “hERG current change (%, negative = inhibition) at 1uM” value is on record as 16.3%. With `O=c1cc(Cl)[nH]c(=O)n1Cc1ccc(F)cc1` the figure was 14.9%; with `O=C(COc1ccc(Cl)cc1)Nc1ccc(C(=O)O)cc1NC(=O)COc1ccc(Cl)cc1`, 13.1%.

With `Cc1ccc(C(=O)C(C)OC(=O)CNS(=O)(=O)c2ccc(C)cc2)cc1` (stereo not drawn), the “hERG current change (%, negative = inhibition) at 1uM” value is recorded as 2.07%.

For `CCOc1ccc(-c2nc(CSCC(=O)N3CCN(C(=O)c4ccco4)CC3)c(C)o2)cc1`, the “hERG current change (%, negative = inhibition) at 1uM” value was -8.95%. As for `COc1cccc(N(CC(=O)NCCN2CCOCC2)S(=O)(=O)c2ccccc2)c1`, the figure is 4.79%; as for `CC(=O)N1CCN(c2ccc(N=Cc3c(O)n(-c4ccc(Cl)cc4)c(=O)[nH]c3=O)cc2)CC1`, 3.84%.

For the origin of these results see article PMC4336329 (PLoS ONE, 2015).
